In PubChem BioAssay AID1259407 (Chemical Carcinogenesis Research Information System (CCRIS), 2018):
Entries after “also recorded” stand apart in the source; their conditions may differ. Some entries of the source have several records that differ or are many. This is not the full list of results. An entry can have further records. No rule for the calls is given here. Values given together differ, and nothing given here explains why; some may be repeats, others may stem from another dose, organism or construct than stated. Records carry a tag for their origin. A, B and so on number the origins entry by entry. Signs of the kind (2×) count equal records among those shown.

Tested on: CCRIS mutagenicity, Ames/micronucleus/aberration tests
Experiment: CCRIS mutagenicity studies
[1] = End Point: IN VITRO CHROMOSOMAL ABERRATIONS, Test System: CHO CELLS, Metabolic Activation: NONE
[2] = Test System: AMES SALMONELLA TYPHIMURIUM, Strain/Indicator: TA98, Metabolic Activation: RAT, LIVER, S-9, AROCLOR 1254, Method: STANDARD PLATE
[3] = Test System: MOUSE LYMPHOMA, Strain/Indicator: L5178Y (TK+/TK-), Metabolic Activation: NONE, Method: SUSPENSION/PLATE
[4] = Test System: AMES SALMONELLA TYPHIMURIUM, Strain/Indicator: TA100, Metabolic Activation: NONE, Method: PREINCUBATION
[5] = End Point: In vitro chromosomal aberrations, Test System: Chinese hamster lung (CHL/IU) cells, Metabolic Activation: None
[6] = End Point: IN VITRO CHROMOSOMAL ABERRATIONS, Test System: CHL CELLS, Metabolic Activation: NONE
[7] = Test System: AMES SALMONELLA TYPHIMURIUM, Strain/Indicator: TA100, Metabolic Activation: NONE, Method: STANDARD PLATE
[8] = Test System: AMES SALMONELLA TYPHIMURIUM, Strain/Indicator: TA98, Metabolic Activation: NONE, Method: PREINCUBATION

## O=[N+]([O-])c1cc([As](=O)(O)O)ccc1O
[1]
  mutagenic call: inactive; negative; testing limited by solubility of the chemical [study A]; also recorded: inactive; negative [study B]

## Nc1ccc([N+](=O)[O-])c(O)c1
[2]
  mutagenic call: inactive; negative and active; positive
Test System: AMES SALMONELLA TYPHIMURIUM, Strain/Indicator: TA1538, Metabolic Activation: RAT, LIVER, S-9, AROCLOR 1254, Method: STANDARD PLATE
  mutagenic call: inactive; negative and active; positive

## [O]=[V](=[O])[OH]
Test System: CHINESE HAMSTER V-79, Strain/Indicator: V-79/6-THIOGUANINE, Metabolic Activation: NONE
  mutagenic call: active; positive [study A] and inactive; negative [study A] and inactive; negative [study B]

## CCC1CCC(CCC(=O)[O-])C1.CCC1CCC(CCC(=O)[O-])CC1.[Cu+2] (centres undefined)
[3]
  mutagenic call: active; positive. reevaluation of results: positive [study A]; also recorded: inactive; negative. reevaluation of results: positive [study B]

## CCC(O)\C=C/C=C\C=C/C=C\C=O (centres undefined)
[4]
  mutagenic call: inactive; negative [0 to 10 µg/plate] and active; positive [0 to 100 µg/plate]

## CCCC=O
[5]
  mutagenic call: active; positive (structural changes and ploidy). ploidy not dose related (2×); also recorded: active; positive (structural changes and ploidy)

## O=[N+]([O-])c1cccc(Cl)c1F
[6]
  mutagenic call: active; positive (structural and ploidy changes); also recorded: active; positive (structural changes); authors report equivocal results for ploidy

## C=C1C/C(=C/C)C(=O)O[C@@H]2CCN3CC=C(COC(=O)[C@@]1(O)CO)[C@H]23
Test System: UDS MOUSE HEPATOCYTES, Strain/Indicator: THY INCORP, Metabolic Activation: NONE, Method: IN VIVO
  mutagenic call: active; positive [study A] and inactive; negative [study B] and active; positive [study B]

## O=NO
Test System: E. coli, Strain/Indicator: WP2 uvrA/pKM101, Metabolic Activation: None, Method: Preincubation
  mutagenic call: active; positive. addition of ascorbic acid increased the effect; also recorded: active; positive (2×)

## ON=C1CCCCC1
Test System: AMES SALMONELLA TYPHIMURIUM, Strain/Indicator: TA1535, Metabolic Activation: NONE, Method: PREINCUBATION
  mutagenic call: inactive; negative [study A] and active; positive [study B]

## Oc1ccc(Cl)cc1Cl
[1]
  mutagenic call: inactive; negative [study A] and active; positive [study B]

## Cc1ccc(C(C)C)cc1O
End Point: In vivo chromosomal aberrations, Test System: Bone marrow cells, Species: Rat, Strain/Sex: Sprague-Dawley/Male, Route: Intraperitoneal
  mutagenic call: active; positive (structural changes; numerical changes not dose-related); also recorded: active; positive (structural changes); also recorded: active; positive (structural and numerical changes)

## Cc1c2c(cc3ccccc13)-c1ccccc1C1NC21 (centres undefined)
[4]
  mutagenic call: active; positive and inactive; negative

## Cc1cc2nc3c(=O)[nH]c(=O)nc-3n(C[C@H](O)[C@H](O)[C@H](O)CO)c2cc1C
Test System: AMES SALMONELLA TYPHIMURIUM, Strain/Indicator: TA102, Metabolic Activation: NONE, Method: PREINCUBATION
  mutagenic call: inactive; negative [study A] and inactive; negative [study B] and active; positive [study B]

## S=C(NC1CCCCC1)NC1CCCCC1
[3]
  mutagenic call: active; positive [study A] and inactive; negative [study B]

## COc1cc(COC(=O)CCCCCCC(C)C)ccc1O
[5]
  mutagenic call: inactive; negative (2×) and active; positive only at 194 ug/ml

## C1O[C@@H]1[C@@H]1CO1
Test System: E. COLI, Strain/Indicator: WP2 UVRA, Metabolic Activation: HAMSTER, LIVER, S-9, AROCLOR 1254, Method: PREINCUBATION
  mutagenic call: active; positive and inactive; negative
Test System: E. COLI, Strain/Indicator: WP2 UVRA, Metabolic Activation: MOUSE, LIVER, S-9, AROCLOR 1254, Method: PREINCUBATION
  mutagenic call: active; positive and inactive; negative
Test System: E. COLI, Strain/Indicator: WP2 UVRA, Metabolic Activation: MOUSE, LIVER, S-9, Method: PREINCUBATION
  mutagenic call: active; positive and inactive; negative
Test System: E. COLI, Strain/Indicator: WP2 UVRA, Metabolic Activation: NONE, Method: PREINCUBATION
  mutagenic call: active; positive and inactive; negative

## C#CC
[6]
  mutagenic call: active; positive (structural changes) and inactive; negative

## ClCCl
[7]
  mutagenic call: active; positive [study A] and inactive; negative [study B]

## Cc1ccc(N)cc1[N+](=O)[O-]
[8]
  mutagenic call: active; positive [study A] and inactive; negative [study B]

## CC(C)(C)C(=O)C(Oc1ccc(Cl)cc1)n1ccnc1 (centres undefined)
Test System: Mouse lymphoma L5178Y/TK+/- cells, Strain/Indicator: WP2 uvrA (pKM101), Metabolic Activation: None, Method: Suspension/plate
  mutagenic call: inactive; negative and active; positive

## Cl/C=C/CCl
[6]
  mutagenic call: active; positive (structural and ploidy changes); also recorded: inactive; negative

## CCOS(C)(=O)=O
Test System: E. COLI, Strain/Indicator: WP2 UVRA, Metabolic Activation: NONE, Method: STANDARD PLATE
  mutagenic call: active; positive [study A] and inactive; negative [study B]
Test System: E. COLI, Strain/Indicator: WP2 UVRA, Metabolic Activation: RAT, LIVER, S-9, AROCLOR 1254, Method: STANDARD PLATE
  mutagenic call: active; positive [study A] and inactive; negative [study B]

## C=C1C[C@@]23CC[C@H]4[C@@](C)(CCC[C@@]4(C)C(=O)O[C@@H]4O[C@H](CO)[C@@H](O)[C@H](O)[C@H]4O)[C@@H]2CC[C@]1(O[C@@H]1O[C@H](CO)[C@@H](O)[C@H](O)[C@H]1O[C@@H]1O[C@H](CO)[C@@H](O)[C@H](O)[C@H]1O)C3
[8]
  mutagenic call: inactive; negative [study A] and active; positive [study B]

## NC(=O)NO
Test System: AMES SALMONELLA TYPHIMURIUM, Strain/Indicator: TA98, Metabolic Activation: NONE, Method: STANDARD PLATE
  mutagenic call: inactive; negative [study A] and active; positive [study B]
[7]
  mutagenic call: inactive; negative [study A] and active; positive [study B]
Test System: AMES SALMONELLA TYPHIMURIUM, Strain/Indicator: TA102, Metabolic Activation: NONE, Method: STANDARD PLATE
  mutagenic call: inactive; negative [study A] and active; positive [study B]

## Nc1ccc(I)cc1Cl
[5]
  mutagenic call: active; positive (structural changes); also recorded: active; positive (ploidy). toxic at 0.12 mg/ml; also recorded: inactive; negative. weak response is not dose related; toxic at 0.16 mg/ml
Test System: Ames Salmonella typhimurium, Strain/Indicator: TA100, Metabolic Activation: Rat, Liver, S9, Sodium phenobarbital and 5,6-benzoflavone (10%), Method: Preincubation
  mutagenic call: inactive; negative (2×) and inactive; positive (retest was negative)
Test System: Ames Salmonella typhimurium, Strain/Indicator: TA100, Metabolic Activation: Rat, Liver, S9, Sodium phenobarbital and 5,6-benzoflavone (30%), Method: Preincubation
  mutagenic call: active; positive (2×) and inactive; negative

## CC(C)C#N
[5]
  mutagenic call: inactive; negative. weak ploidy at highest dose only; also recorded: inactive; negative (2×)
Test System: Ames Salmonella typhimurium, Strain/Indicator: TA98, Metabolic Activation: None, Method: Preincubation
  mutagenic call: inactive; negative; also recorded: active; positive (results of 2 experiments)
Test System: Ames Salmonella typhimurium, Strain/Indicator: TA98, Metabolic Activation: Rat, Liver, S9, Sodium phenobarbital and 5,6-benzoflavone (10%), Method: Preincubation
  mutagenic call: inactive; negative; also recorded: active; positive (results of 2 experiments)
Test System: Ames Salmonella typhimurium, Strain/Indicator: TA1535, Metabolic Activation: Rat, Liver, S9, Sodium phenobarbital and 5,6-benzoflavone (10%), Method: Preincubation
  mutagenic call: active; positive; also recorded: inactive; negative (results of 2 experiments)
Test System: Ames Salmonella typhimurium, Strain/Indicator: TA1537, Metabolic Activation: Rat, Liver, S9, Sodium phenobarbital and 5,6-benzoflavone (10%), Method: Preincubation
  mutagenic call: active; positive (2×); also recorded: active; positive (*growth inhibition observed)

## N#CC(Cl)Cl
[8]
  mutagenic call: inactive; negative [study A] and active; positive [study B]

## Clc1ccccc1
End Point: In vivo chromosomal aberrations, Test System: Bone marrow, Species: Rat, Strain/Sex: Norway/Male, Route: Intraperitoneal
  mutagenic call: active; positive (at highest dose only) and inactive; negative (2×)
End Point: In vivo micronucleus, Test System: Bone marrow, Species: Rat, Strain/Sex: Norway/Male, Route: Intraperitoneal
  mutagenic call: active; positive (at highest dose only) and inactive; negative (2×)

## ClCC(Cl)(Cl)Cl
End Point: IN VITRO CHROMOSOMAL ABERRATIONS, Test System: CHINESE HAMSTER LUNG FIBROBLAST CELLS (CHL/IU), Metabolic Activation: NONE
  mutagenic call: active; positive (ploidy) and inactive; negative

## Nc1cc(N)cc(Cl)c1
[6]
  mutagenic call: active; positive (structural and ploidy changes); also recorded: inactive; negative

## Nc1ccc(N)cc1
End Point: In vitro micronucleus, Test System: Human lymphocytes, Metabolic Activation: None
  mutagenic call: inactive; negative and active; positive
Test System: AMES SALMONELLA TYPHIMURIUM, Strain/Indicator: TA98, Metabolic Activation: RAT, LIVER, S-9, AROCLOR 1254, Method: PREINCUBATION
  mutagenic call: active; positive [study A] and inactive; negative [study B]
[2]
  mutagenic call: active; positive [study A] and inactive; negative [study B]
Test System: E.COLI, Strain/Indicator: WP2UVRA, Metabolic Activation: NONE, Method: PREINCUBATION
  mutagenic call: inactive; negative and active; positive
